# Measured values from PubChem BioAssay AID485294 (National Center for Advancing Translational Sciences (NCATS), 2010).
# Screen size: about 370,000 compounds; about 150 (0.041%) were called active. This list was built around the results that the source calls inconclusive (neither active nor inactive); the mix of calls is not that of the screen. Calls follow the shape of the dose curve; as a rule, active = well fitted inhibition curve with a large enough effect; inconclusive = small, poorly fitted or top-dose-only effect; inactive = flat fitted curve, though single readings scatter. No potency is given beside an inconclusive call; the fits are too rough.
# Target: Beta-lactamase (Escherichia coli (strain K12)) (UniProt P00811)
# Chain of UniProt P00811 (P00811 whole entry, looked up): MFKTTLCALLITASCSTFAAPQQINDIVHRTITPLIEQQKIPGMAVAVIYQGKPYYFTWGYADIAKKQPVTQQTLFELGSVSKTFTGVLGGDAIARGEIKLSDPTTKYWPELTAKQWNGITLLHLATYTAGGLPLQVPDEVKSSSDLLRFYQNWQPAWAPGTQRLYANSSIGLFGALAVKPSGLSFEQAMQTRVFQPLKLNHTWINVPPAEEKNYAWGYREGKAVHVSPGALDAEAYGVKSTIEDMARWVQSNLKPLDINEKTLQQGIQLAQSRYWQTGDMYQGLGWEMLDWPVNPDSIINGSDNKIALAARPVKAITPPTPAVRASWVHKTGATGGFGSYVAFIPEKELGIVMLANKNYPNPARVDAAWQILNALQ
# Test: qHTS Inhibitors of AmpC Beta-Lactamase (assay with detergent); also: nearly all actives have a fitted effect of over 25% in size
# Settings: AmpC hydrolysis of nitrocefin, absorbance 480 nm, 0.01% Triton; series mostly up to 114 µM
# Summary of the method: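 AmpC (5.3 nM in the dispensed reagent) in 20 mM phosphate pH 7.0 with 0.01% (detergent screen) or 0.0001% Triton X-100 was preincubated with compounds for 15 min at room temperature. Nitrocefin was then added from an 800 uM solution, and hydrolysis was followed at 480 nm.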
# Potency is read from the fitted curve at half-maximal effect; tags tell the direction and shape of the fitted curve.
row,SMILES,Potency
1,COc1cccc(OCc2nnc(SCC(=O)NNC(=O)C3CCCCC3)n2C)c1,"inconclusive [inhibitor, full curve]"
2,Nn1c(-c2ccccc2)nc2cc(Cl)ccc2c1=O,"inconclusive [inhibitor, full curve, poor fit]"
3,Cc1ccc(C(=O)NC(c2ccccc2)C(Cl)Cl)cc1 (stereo not given),inactive
4,O=c1cc[nH]c2ccc(Cl)cc12,"inconclusive [inhibitor, full curve, poor fit]"
5,CC(NS(=O)(=O)/C=C/c1ccccc1)c1ccccc1 (stereo not given),"inconclusive [inhibitor, full curve, poor fit]"
6,CC(C)CC(=O)NC(=S)Nc1ccc(NC(=O)c2cccs2)cc1,inactive
7,CCN(CC)CCN1C(=O)c2ccccc2NC1c1cccc(F)c1 (stereo not given),"inconclusive [inhibitor, full curve, poor fit]"
8,COc1cc(=O)n(C)c2c(OCC3OC(C)(C)OC3(C)C)cccc12 (stereo not given),"inconclusive [inhibitor, full curve]"
9,CC1CCCN(C(=O)c2ccc3c(=O)n(Cc4ccc5c(c4)OCO5)c(=S)[nH]c3c2)C1 (stereo not given),"inconclusive [inhibitor, full curve, poor fit]"
10,CC(C)c1ccc(NC(=O)CCC(=O)NCc2ccco2)cc1,"inconclusive [inhibitor, full curve, poor fit]"
11,C/C(=N\S(=O)(=O)c1ccc(C)cc1)N(C)C,inactive
12,C[C@@H](C(=O)NCc1ccc(S(C)(=O)=O)cc1)[C@H]1C[C@]1(C)[C@H](NC(=O)OCc1ccccc1)c1ccccc1,"inconclusive [inhibitor, partial curve]"
13,Cc1ccc2c(c1)N(CC(=O)N1CCCC1)C(=O)c1cccnc1O2,"inconclusive [inhibitor, single point]"
14,Cc1ccc2[nH]c(=O)c(COC(=O)c3cccs3)cc2c1,"inconclusive [inhibitor, full curve, poor fit]"
15,CC1c2ccsc2CCN1S(=O)(=O)c1ccccc1 (stereo not given),inactive
16,Cc1ccc(NC(=O)CN(C)C(=O)c2ccc3[nH]c4c(c3c2)CC(C)CC4)cc1 (stereo not given),inactive
17,C[N+](C)(C)CC=O,"inconclusive [inhibitor, full curve, poor fit]"
18,CN(C)/C=C(\C#N)S(=O)(=O)c1ccccc1,"inconclusive [inhibitor, full curve, poor fit]"
19,O=C1Nc2ccccc2C1=Nc1ccc(F)cc1,"inconclusive [inhibitor, partial curve, poor fit]"
20,O=c1[nH]c(/C=C/c2cccc([N+](=O)[O-])c2)c([N+](=O)[O-])c(=O)[nH]1,"inconclusive [inhibitor, full curve]"
21,O=C(CC(c1ccccc1O)N1CCCCC1)N1CCCCC1 (stereo not given),inactive
22,C=CCSC1=N/C(=C\c2ccc3c(c2)OCO3)C(=O)S1,inactive
23,Cc1cccc(NC(=S)NNC(=O)c2ccc(Br)o2)c1,"inconclusive [inhibitor, single point]"

row,SMILES,Potency
1,O=C(Nc1cccnc1Cl)c1cc(-c2ccco2)on1,"inconclusive [inhibitor, single point]"
2,O=C(CCCn1c(=O)oc2ccccc21)Nc1ccccc1,"inconclusive [inhibitor, full curve, poor fit]"
3,COc1ccc(Nc2cc(C)c3cc(NC(=O)c4cc(OC)cc(OC)c4)ccc3n2)cc1,inactive
4,Cc1ccc(C)c(C(=O)CCC(=O)NNC(=O)Cn2nc(C)cc2C)c1,"inconclusive [inhibitor, full curve, poor fit]"
5,Cc1cc(Cl)ccc1OCC(=O)Nc1ccccc1CO,"inconclusive [inhibitor, single point]"
6,Clc1ccccc1CSc1ncn(-c2ccccc2)n1,"inconclusive [inhibitor, single point]"
7,O=C1CC(NNc2ccccc2)C(=O)N1c1cccc(Cl)c1 (stereo not given),"inconclusive [inhibitor, partial curve]"
8,CCOC(=O)CSC1=NC(=O)/C(=C\c2ccc(Cl)cc2)S1,inactive
9,c1ccc(N(c2ccccc2)c2nc(N3CCCC3)nc(-n3ccnc3)n2)cc1,inactive
10,Cc1cc(C)c(C#N)c(SCc2nnc(-c3ccccc3)o2)n1,inactive
11,CCc1c(C)nc(N)nc1OCC(F)(F)C(F)F,"inconclusive [inhibitor, partial curve]"
12,O=C(Nc1nccs1)C(F)(F)C(F)(F)C(F)(F)C(=O)Nc1nccs1,"inconclusive [inhibitor, full curve, poor fit]"
13,O=C(N/N=C1\CCc2ccccc21)c1ccccc1Cl,"inconclusive [inhibitor, full curve, poor fit]"
14,CC(OC(=O)C1=COCCO1)C(=O)NC(C)c1ccc(Cl)cc1Cl (stereo not given),"inconclusive [inhibitor, full curve, poor fit]"
15,O=C(CN(CCc1ccccc1)C(=O)c1csnn1)NCc1ccc(F)cc1,inactive
16,Cc1ccc(NC(=O)c2ccc(CSc3nccc(C)n3)cc2)cc1,inactive
17,CCN(CC)c1ccc(/C=N/NC(=O)c2ccc(Br)o2)cc1,"inconclusive [inhibitor, partial curve]"
18,CCOC(=O)/C(=N/Nc1ccccc1)Sc1nnnn1-c1ccc(C)cc1,"inconclusive [inhibitor, partial curve, poor fit]"
19,CCn1c(SCC(=O)Nc2nc(C)c(C)s2)nnc1-c1cccs1,"inconclusive [inhibitor, single point]"
20,O=C(NCC(c1ccco1)N1CCN(c2ccccc2F)CC1)C(=O)NC1CCCCC1 (stereo not given),"inconclusive [inhibitor, single point]"
21,COC(=O)CN1C(=O)[C@H]2[C@@H](c3ccc(C)o3)N3C(=O)CN(Cc4ccccc4)C(=O)[C@@]3(C)[C@H]2C1=O,inactive
22,CCOC(=O)c1c(NC(=O)COC(=O)c2cnccn2)sc(C(=O)NC)c1C,inactive
